Results are given in words; binding and its absence hold for the method and conditions named. Binding seen in cells or lysates may run through a third protein. Tags and fused reporters may be left off the sequences shown.
How the values were obtained:
[1] = target: T1, PLDβ2-YFP-HA (Arabidopsis thaliana) (UniProt O23078); experiment: co-IP; PLD-YFP-HA and RPM1-Myc co-expressed in N. benthamiana leaves; microsomal fractions solubilised in 40 mM Tris-HCl pH 7.5, 150 mM NaCl, 1 mM DTT, 5 mM EDTA, 1% Triton X-100; PLD-YFP-HA precipitated with anti-GFP agarose beads at 4°C for 3 h; RPM1-Myc detected by blot
T1 sequence: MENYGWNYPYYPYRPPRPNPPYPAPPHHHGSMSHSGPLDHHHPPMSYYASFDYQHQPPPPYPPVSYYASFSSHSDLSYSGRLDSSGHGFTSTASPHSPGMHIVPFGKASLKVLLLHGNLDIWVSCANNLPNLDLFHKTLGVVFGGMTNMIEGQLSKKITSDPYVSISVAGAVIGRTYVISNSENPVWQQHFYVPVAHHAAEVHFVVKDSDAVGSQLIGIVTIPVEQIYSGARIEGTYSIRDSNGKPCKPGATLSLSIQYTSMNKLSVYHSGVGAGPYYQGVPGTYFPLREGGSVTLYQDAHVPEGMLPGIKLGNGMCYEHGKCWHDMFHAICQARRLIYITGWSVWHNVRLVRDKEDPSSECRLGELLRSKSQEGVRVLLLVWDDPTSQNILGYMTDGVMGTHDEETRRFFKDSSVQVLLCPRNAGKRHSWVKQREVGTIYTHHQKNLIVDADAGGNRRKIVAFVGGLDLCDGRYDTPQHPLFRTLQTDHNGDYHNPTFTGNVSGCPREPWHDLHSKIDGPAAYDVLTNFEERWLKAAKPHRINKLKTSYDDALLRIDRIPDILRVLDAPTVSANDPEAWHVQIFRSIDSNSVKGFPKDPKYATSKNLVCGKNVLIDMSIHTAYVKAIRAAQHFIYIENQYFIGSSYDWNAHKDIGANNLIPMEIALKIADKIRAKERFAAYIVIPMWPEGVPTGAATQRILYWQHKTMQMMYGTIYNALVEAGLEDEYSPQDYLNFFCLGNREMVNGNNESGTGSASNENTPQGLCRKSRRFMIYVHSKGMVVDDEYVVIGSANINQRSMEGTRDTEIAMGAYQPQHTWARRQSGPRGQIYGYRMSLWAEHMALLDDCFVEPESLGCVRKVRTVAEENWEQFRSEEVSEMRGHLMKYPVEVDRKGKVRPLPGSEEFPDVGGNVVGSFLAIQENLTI

[2] = target: T2, PLDβ1-YFP-HA (Arabidopsis thaliana) (UniProt P93733); experiment: as above
T2 sequence: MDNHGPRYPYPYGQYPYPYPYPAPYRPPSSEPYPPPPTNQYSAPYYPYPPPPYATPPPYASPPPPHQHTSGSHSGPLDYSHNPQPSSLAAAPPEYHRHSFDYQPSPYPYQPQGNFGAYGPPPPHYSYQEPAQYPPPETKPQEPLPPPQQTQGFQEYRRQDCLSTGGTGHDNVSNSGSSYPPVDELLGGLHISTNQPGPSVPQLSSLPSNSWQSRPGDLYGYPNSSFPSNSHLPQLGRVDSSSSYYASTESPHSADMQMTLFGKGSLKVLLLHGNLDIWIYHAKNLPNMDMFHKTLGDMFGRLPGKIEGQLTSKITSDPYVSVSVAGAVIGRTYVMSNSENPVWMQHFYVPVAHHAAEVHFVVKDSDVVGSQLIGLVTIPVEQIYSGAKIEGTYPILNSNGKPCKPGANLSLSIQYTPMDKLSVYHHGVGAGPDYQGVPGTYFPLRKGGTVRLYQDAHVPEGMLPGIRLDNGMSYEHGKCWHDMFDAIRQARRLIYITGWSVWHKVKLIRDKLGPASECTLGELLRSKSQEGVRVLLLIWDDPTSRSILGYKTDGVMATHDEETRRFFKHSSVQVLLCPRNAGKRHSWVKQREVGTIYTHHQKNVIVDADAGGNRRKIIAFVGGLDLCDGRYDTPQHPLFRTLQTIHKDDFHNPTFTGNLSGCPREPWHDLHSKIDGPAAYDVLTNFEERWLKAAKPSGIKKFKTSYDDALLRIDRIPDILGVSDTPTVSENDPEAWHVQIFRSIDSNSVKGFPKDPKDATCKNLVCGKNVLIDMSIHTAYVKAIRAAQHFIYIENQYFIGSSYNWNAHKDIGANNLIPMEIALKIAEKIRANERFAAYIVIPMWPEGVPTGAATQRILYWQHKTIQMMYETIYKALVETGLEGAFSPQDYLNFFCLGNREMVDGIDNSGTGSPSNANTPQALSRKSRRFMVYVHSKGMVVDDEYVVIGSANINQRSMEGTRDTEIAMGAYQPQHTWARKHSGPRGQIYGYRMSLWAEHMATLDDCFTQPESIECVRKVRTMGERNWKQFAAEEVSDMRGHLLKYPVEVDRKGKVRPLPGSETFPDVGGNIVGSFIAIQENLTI

B1: RPM1-Myc (35S::RPM1-Myc) (receptor, UniProt Q39214 1-926)
chain: MASATVDFGIGRILSVLENETLLLSGVHGEIDKMKKELLIMKSFLEDTHKHGGNGSTTTTTQLFQTFVANTRDLAYQIEDILDEFGYHIHGYRSCAKIWRAFHFPRYMWARHSIAQKLGMVNVMIQSISDSMKRYYHSENYQAALLPPIDDGDAKWVNNISESSLFFSENSLVGIDAPKGKLIGRLLSPEPQRIVVAVVGMGGSGKTTLSANIFKSQSVRRHFESYAWVTISKSYVIEDVFRTMIKEFYKEADTQIPAELYSLGYRELVEKLVEYLQSKRYIVVLDDVWTTGLWREISIALPDGIYGSRVMMTTRDMNVASFPYGIGSTKHEIELLKEDEAWVLFSNKAFPASLEQCRTQNLEPIARKLVERCQGLPLAIASLGSMMSTKKFESEWKKVYSTLNWELNNNHELKIVRSIMFLSFNDLPYPLKRCFLYCSLFPVNYRMKRKRLIRMWMAQRFVEPIRGVKAEEVADSYLNELVYRNMLQVILWNPFGRPKAFKMHDVIWEIALSVSKLERFCDVYNDDSDGDDAAETMENYGSRHLCIQKEMTPDSIRATNLHSLLVCSSAKHKMELLPSLNLLRALDLEDSSISKLPDCLVTMFNLKYLNLSKTQVKELPKNFHKLVNLETLNTKHSKIEELPLGMWKLKKLRYLITFRRNEGHDSNWNYVLGTRVVPKIWQLKDLQVMDCFNAEDELIKNLGCMTQLTRISLVMVRREHGRDLCDSLNKIKRIRFLSLTSIDEEEPLEIDDLIATASIEKLFLAGKLERVPSWFNTLQNLTYLGLRGSQLQENAILSIQTLPRLVWLSFYNAYMGPRLRFAQGFQNLKILEIVQMKHLTEVVIEDGAMFELQKLYVRACRGLEYVPRGIENLINLQELHLIHVSNQLVERIRGEGSVDRSRVKHIPAIKHYFRTDNGSFYVSLSS
Question: How did the binding [1] turn out when B1 was run?
Answer: Its binding is “no binding”.

Question: And the binding [2]?
Answer: The binding was “no binding”.
